Test results as given in PubChem BioAssay AID1347073 (National Center for Advancing Translational Sciences (NCATS), 2019).
The whole screen tested about 45,000 compounds, of which about 200 (0.44%) were called active. The inconclusive results got no clear call from the source; some entries with a clear call stand among them for comparison. Calls come from the whole dose curve; as a rule, active = well fitted activation curve with a large enough effect; inconclusive = small, poorly fitted or top-dose-only effect; inactive = no such curve, though single readings can be large or run the other way. Potencies beside an inconclusive call are fits to weak or partial responses and may not hold up.

Experiment: qHTS of TDP-43 Inhibitors: NCGC Sytravon Library Screen; note: nearly all actives have a fitted effect of over 55% in size; for growth rescue (activation): 0% is about no effect
Settings: yeast TDP-43 toxicity rescue, BacTiter-Glo growth, 24 h; growth rescue (activation): at 46.1 µM (top of the series)
Outline: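 TDP-43-expressing yeast, pregrown in raffinose, seeded at OD600 0.02 in galactose medium with compound for 24 hr at 30 deg C. Growth read by BacTiter-Glo luminescence, so rescue of toxicity appears as activation.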
Potency is the fitted concentration of half-maximal effect; tags give direction and shape of the fitted curve.

| Compound | Potency | growth rescue (activation) |
| --- | --- | --- |
| Cc1ccc(-n2c(SCC(=O)Nc3ncc(Cl)cc3Cl)nc3ccccc32)cc1 | inconclusive: 35.5 µM [activator, single point] | – |
| COc1ccc([N+](=O)[O-])cc1NC(=O)CSCc1ccccc1C | inconclusive: 12.6 µM [activator, partial curve, poor fit] | – |
| COc1ccc(Nc2nc(N)nc(CSC(=S)N3CCCCC3C)n2)cc1 (stereo not drawn) | inconclusive: 20 µM [activator, single point] | – |
| COC(=O)c1ccccc1NC(=O)c1c(Br)cnn1C | inconclusive: 12.6 µM [activator, partial curve, poor fit] | – |
| CC(CN1CCC(n2nccc2NC(=O)C2CCCC2)CC1)c1ccccc1 (stereo not drawn) | – | inactive: 16.5% |
| CCc1ccc(OCCCSc2nc(-c3ccc(C(C)(C)C)cc3)nc3cc(=O)[nH]n23)cc1 | – | inactive: 7.19% |
| CC1(C)CC2(CCCN(CC(O)(c3ccccc3)c3ccccc3)C2)CCO1 (stereo not drawn) | inconclusive: 20 µM [activator, partial curve, poor fit] | – |
| O=C(O)CN1C(=O)/C(=C\c2cccc(OCc3ccccc3F)c2)SC1=S | inconclusive: 20 µM [activator, partial curve, poor fit] | – |
| COc1ccc(C2=CC(=O)OC(C)(c3ccccc3)O2)cc1 (stereo not drawn) | inconclusive: 11.2 µM [activator, single point] | – |
| Cc1cc(SCC(=O)OCC(=O)NC(C)c2ccccc2)c(C)cc1Br (stereo not drawn) | inconclusive: 14.1 µM [activator, single point] | – |
| CC(C)Oc1ccc(CN2CCC2(C)C(=O)Nc2cccc3cccnc23)cc1 (stereo not drawn) | – | inconclusive: 32.4% [activator] |
| CN(C)c1cccc2c1C(=O)c1ccccc1C2=O | inconclusive: 22.4 µM [activator, partial curve, poor fit] | – |
| COc1ccc(Nc2nc3nonc3nc2N2CCCCC2)cc1 | inconclusive: 12.6 µM [activator, partial curve] | – |
| O=C(Cn1cnc(Cl)c1Cl)c1ccc(F)cc1 | inconclusive: 14.1 µM [activator, partial curve, poor fit] | – |
| COc1ccc(/C=C/C2=NC(=C\N(C)C)/C(=O)O2)cc1 | inconclusive: 11.2 µM [activator, partial curve, poor fit] | – |
| O=C(/C=C/c1ccc2c(c1)OCO2)N1CCN(c2n[nH]c(=O)[nH]c2=O)CC1 | inconclusive: 35.5 µM [activator, single point] | – |
| Cc1ccc(-c2c(CN3CCN(c4cc(C)ccc4C)CC3)csc2C)cc1 | – | inactive: 16.7% |
| Cc1cccc(NC(=O)c2ccc([N+](=O)[O-])o2)c1 | – | inactive: -89% |
| COc1ccc(Cl)cc1-c1cc(C(=O)N[C@H](C)c2ccccc2)[nH]n1 | – | inconclusive: 55.4% [activator] |
| O=C1CC(Sc2nnnn2-c2ccccc2)C(=O)N1c1cccc(Cl)c1 (stereo not drawn) | inconclusive: 12.6 µM [activator, partial curve, poor fit] | – |
| COC(=O)c1sc(NC(=O)CSc2nnnn2C)nc1C | – | inactive: -4.23% |
| Cc1ccc(CS(=O)(=O)c2ncc(Cl)c(C(=O)Nc3nnc(C(C)C)s3)n2)cc1 | inconclusive: 12.6 µM [activator, partial curve] | – |
| COc1cccc(C(NC(C)=O)c2nc(-c3ccc4ccccc4c3)cs2)c1 (stereo not drawn) | – | inconclusive: 70.4% [activator] |

| Compound | Potency | growth rescue (activation) |
| --- | --- | --- |
| CCc1ccc(NC(=S)N(Cc2cccc(Br)c2)CC2CCC(C(=O)O)CC2)cc1 (stereo not drawn) | inconclusive: 12.6 µM [activator, partial curve, poor fit] | – |
| O=C(CCCCCn1c(=O)c2sccc2n(Cc2ccccc2Cl)c1=O)NCc1ccc2c(c1)OCO2 | – | inactive: 5.26% |
| Cc1ccc(S(=O)(=O)/N=C(/Nc2ccccc2C)c2ccccc2)cc1 | – | inconclusive: 34.4% [activator] |
| COc1ccc(CCNC(=O)C(C)n2nc(C)c3sc4ccccc4c3c2=O)c(OC)c1 (stereo not drawn) | – | inactive: 11.3% |
| CN1CCCC(C(=O)Nc2cccc(Cl)c2)CC1 (stereo not drawn) | – | inactive: 7.46% |
| COc1ccccc1NC(=O)CN1C(=O)C(c2ccc(F)cc2)=NC12CCCCC2 | inconclusive: 17.8 µM [activator, partial curve, poor fit] | – |
| Cc1ccc(C)c(NC(=S)NCCc2c[nH]c3ccccc23)c1 | inconclusive: 25.1 µM [activator, single point] | – |
| COc1ccc(Br)c(-c2nnc(CS(=O)(=O)c3ccccc3)o2)c1 | inconclusive: 15.8 µM [activator, partial curve, poor fit] | – |
| Cc1cc(C)c(C)c(OCC(=O)O/N=C(\N)c2ccncc2)c1 | inconclusive: 20 µM [activator, partial curve, poor fit] | – |
| N=C1C(c2ccccc2)=C(O)CN1c1cccc2ccccc12 | – | inactive: 12.5% |
| Cc1ccc(-c2noc(-c3nnn(CC(=O)Nc4ccc(C)c(Cl)c4)c3N)n2)cc1 | – | inactive: 8.7% |
| CN(c1ccc(C(=O)N2CCCCCC2)cc1)S(=O)(=O)c1ccc(Cl)cc1 | – | inactive: 29% |
| Cc1ccc2c(C)c(C(=O)N(Cc3ccc(N(C)C)cc3)Cc3ccco3)oc2c1C | inconclusive: 14.1 µM [activator, single point] | – |
| Cc1cccc(CNC(=O)CSCc2cnn(-c3ccccc3)c2-n2cccc2)c1 | inconclusive: 17.8 µM [activator, single point] | – |
| O=C(CCSc1ccccc1)NCCSCc1ccco1 | inconclusive: 31.6 µM [activator, partial curve, poor fit] | – |
| COc1cc(C(C)=O)ccc1OCc1nnc(-c2ccccc2Br)o1 | inconclusive: 8.91 µM [activator, partial curve] | – |
| O=C(NCc1cccc(Cl)c1)c1ccc2ccccc2n1 | inconclusive: 15.8 µM [activator, partial curve, poor fit] | – |
| CNC(=S)N1N=C(c2ccc(Br)cc2)CC1c1ccc(OC)cc1 (stereo not drawn) | inconclusive: 11.2 µM [activator, partial curve, poor fit] | – |
| O=c1[nH]c(-c2ccccn2)nc2ccccc12 | inconclusive: 17.8 µM [activator, single point] | – |
| CC1CN(CC(=O)Nc2nc(-c3ccc(Cl)cc3)cs2)CC(C)O1 (stereo not drawn) | – | inactive: 6.18% |
| CC(=O)Nc1sc(NC(=O)c2ccco2)nc1-c1cccs1 | – | inactive: 12.7% |
| CCn1c(SCCOc2ccccc2F)nc2ccccc21 | inconclusive: 11.2 µM [activator, partial curve, poor fit] | – |
| CCCOC(=O)c1ccc(Oc2c(-c3ccc(O)cc3O)n[nH]c2C)cc1 | inconclusive: 22.4 µM [activator, single point] | – |

| Compound | Potency | growth rescue (activation) |
| --- | --- | --- |
| CC(=O)Nc1cccc(Oc2nc(NC(C)C)nc3cc(-c4ccccc4)sc23)c1 | inconclusive: 35.5 µM [activator, single point] | – |
| CC(C)Nc1nc(Nc2ccccc2Cl)c2sccc2n1 | – | inactive: -5.27% |
| COc1ccc(-c2[nH]c(-c3cc(OC)c4c(c3)OCO4)nc2-c2ccccc2)cc1 | inconclusive: 17.8 µM [activator, partial curve, poor fit] | – |
| Cc1ccc(C(=O)COC(=O)[C@@H](NC(=O)c2ccco2)C(C)C)s1 | – | inactive: -1.89% |
| COc1ccc(C(=S)N2CCOCC2)cc1OC(=O)c1ccc(C)cc1 | inconclusive: 31.6 µM [activator, single point] | – |
| O=C(c1cccs1)N1CCN(S(=O)(=O)c2cccs2)CC1 | – | inactive: 6.03% |
| COc1cccc2cc(C(C)N(CCCN3CCOCC3)C(=S)Nc3cc(C)cc(C)c3)oc12 (stereo not drawn) | – | inactive: -5.66% |
| Cc1cccc(NC(=O)c2cc3ccccc3c(=O)o2)n1 | inconclusive: 11.2 µM [activator, single point] | – |
| COc1ccc(C)cc1CN1C(=O)c2ccccc2C1=O | inconclusive: 12.6 µM [activator, partial curve] | – |
| O=C1C2CC=CCC2C(=O)N1c1ccc(NCCc2ccccc2F)c([N+](=O)[O-])c1 (stereo not drawn) | – | inactive: 22.3% |
| O=C1C(Cc2ccccc2O)NC(=S)N1c1ccccc1 (stereo not drawn) | inconclusive: 35.5 µM [activator, single point] | – |
| COc1ccc(CCNC(=O)COC(=O)/C=C/c2cccc(F)c2)cc1 | inconclusive: 10 µM [activator, partial curve, poor fit] | – |
| Cc1ccc(S(=O)(=O)Nc2cc3c(cc2C)n(C)c(=O)c(=O)n3C)c(C)c1 | – | inactive: 16.6% |
| COc1ccccc1C(=O)Nc1ccc(C)c(S(=O)(=O)N2CCCCC2)c1 | inconclusive: 35.5 µM [activator, single point] | – |
| COC(=O)Cn1ncc(N2C3CC(CC(C)(C)C3)C2C)c(Cl)c1=O (stereo not drawn) | inconclusive: 17.8 µM [activator, partial curve] | – |
| COc1ccc(F)cc1-c1cc(NC=O)c2ncc(-c3cccc(C(F)(F)F)c3)n2c1 | – | inconclusive: 118% [activator] |
| O=C1CSC(=S)N1/N=C/c1cc(Br)c(O)c(Br)c1 | inconclusive: 35.5 µM [activator, single point] | – |
| CCc1ccc(C(=O)NC(=S)Nc2ccc3c(c2)OCCO3)cc1 | inconclusive: 11.2 µM [activator, partial curve, poor fit] | – |
| COc1ccc(C(=O)N2CCCCC2c2cc(C(=O)NCc3cccnc3)no2)cc1 (stereo not drawn) | – | inconclusive: 82.9% [activator] |
| COC(=O)CSc1snnc1-c1ccc(Cl)cc1Cl | inconclusive: 22.4 µM [activator, single point] | – |
| Cc1ccc(C(=O)NCCNc2ncc(C(F)(F)F)cc2Cl)cc1[N+](=O)[O-] | inconclusive: 12.6 µM [activator, partial curve, poor fit] | – |
| CC1(C(=O)NC2CCCCC2)Cc2ccccc2C(=O)N1Cc1ccccc1Cl (stereo not drawn) | – | inactive: 10.8% |
